Screen size: about 48,000 compounds; about 550 (1.1%) were called active. Roughly 4% stayed inconclusive and do not appear here. Rule as the data show it: active = potency below about 15 µM; inconclusive = mostly about 16 µM to 33 µM; inactive = weaker than that. This is one part of the list. Where only a bound is given, the exact number is not on record here.
Potency is read from the fitted curve at half-maximal effect.

Sequence of UniProt P04062 (P04062 whole entry, looked up): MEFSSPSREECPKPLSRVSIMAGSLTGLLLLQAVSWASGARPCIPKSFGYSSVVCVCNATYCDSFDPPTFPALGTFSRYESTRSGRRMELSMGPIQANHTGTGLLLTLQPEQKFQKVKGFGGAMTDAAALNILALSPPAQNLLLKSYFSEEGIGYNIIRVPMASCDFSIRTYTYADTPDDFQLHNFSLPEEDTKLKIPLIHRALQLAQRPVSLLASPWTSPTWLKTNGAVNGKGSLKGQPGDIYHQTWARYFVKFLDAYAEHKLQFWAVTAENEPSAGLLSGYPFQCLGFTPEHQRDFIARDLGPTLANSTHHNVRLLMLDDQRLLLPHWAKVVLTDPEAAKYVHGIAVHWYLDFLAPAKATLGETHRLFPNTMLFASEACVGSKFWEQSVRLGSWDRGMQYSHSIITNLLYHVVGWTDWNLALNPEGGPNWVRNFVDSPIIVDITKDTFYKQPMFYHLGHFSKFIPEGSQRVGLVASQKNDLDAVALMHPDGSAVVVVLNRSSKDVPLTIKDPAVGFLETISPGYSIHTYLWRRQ

The test addresses Lysosomal acid glucosylceramidase (Homo sapiens) (UniProt P04062). In words: Glucocerebrosidase.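 Also: the screen sought inhibitors.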 As to conditions: purified enzyme, resorufin glucoside fluorescence (screen aimed at inhibitors), 20 min; series mostly up to 77 µM. An outline of the steps:
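Wild-type enzyme at 0.2 nM final in 50mM citric acid/KH2PO4, 10mM sodium taurocholate, 0.01% tween-20, pH 5.9, with resorufin beta-D-glucopyranoside at 30 uM final. Compounds titrated, 20 min at RT, red fluorescence read; AC50 from titration.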
As for `COc1ccc(-n2c(SCC(=O)N3CCCCC3C)nnc2-c2cccnc2)cc1` (stereo unspecified), the Potency is inactive: > 76.9 µM.
The value for `CCCCN1C(=O)C2C(C(=O)Nc3cccc(OC)c3)C3C=CC2(O3)C1C(=O)NC1CCCCC1C` (stereo unspecified) was inactive: > 76.9 µM.
As for `COC(=O)C1C(O)=C(C=NC2CCCCC2)C(=O)CC1(C)C` (stereo unspecified), the Potency was inactive: > 76.9 µM.
As for `Cc1nc2ccc3nc(NC(=O)c4ccco4)sc3c2s1`, the Potency is inactive: > 76.9 µM.
On to `Nc1c(S(=O)(=O)c2cccs2)c2nc3ccccc3nc2n1CC1CCCO1` (stereo unspecified), for which the Potency was inactive: > 76.9 µM.
With `CCn1nnnc1SCC(=O)c1cc(OC)ccc1OC` the figure was inactive: > 76.9 µM; with `O=C1C(=O)N(CCCN2CCOCC2)C(c2ccccn2)/C1=C(\O)c1ccc2c(c1)OCCO2` (stereo unspecified), inactive: > 76.9 µM; with `O=C(CCCc1nc2ccccc2s1)Nc1nccs1`, inactive: > 76.9 µM.
For the compound `COCCCN1C(=O)c2ccccc2C1C(=O)NC1CCCCCC1` (stereo unspecified), the Potency is inactive: > 76.9 µM.
As to `Cc1oc(CSCC2CCCO2)cc1C(=O)O` (stereo unspecified), the Potency is inactive: > 76.9 µM.
The value for `COCCCNC(=O)c1ccc(N(C)S(C)(=O)=O)cc1` was inactive: > 76.9 µM; that for `Cc1cccc(CC2CC(=O)N(C3CCCCC3)C2=O)c1` (stereo unspecified) was inactive: > 76.9 µM.
`O=C(c1ccc2c(c1)N(Cc1ccccc1)C(=O)CS2)N1CCOCC1`: the Potency was inactive: > 76.9 µM.
On to `CCN(CC)CCN1C(=O)c2oc3ccccc3c(=O)c2C1c1ccccc1` (stereo unspecified), for which the Potency was inactive: > 76.9 µM.
On to `Cc1cc(NC(=O)CN2CCCC2c2nc3ccccc3s2)no1` (stereo unspecified), for which the Potency was inactive: > 76.9 µM.
The value for `CCOC(=O)N1CCC(NC(=O)c2cc(C(=O)Nc3ccc(OC)c(OC)c3)ccc2CO)CC1` was inactive: > 76.9 µM; that for `CCOc1cc(C2C(C(=O)OC(C)C)=C(C)N=C3SCCC(=O)N32)ccc1OC(C)=O` (stereo unspecified) was active: 14.5 µM.
The value for `COCCNC(=O)CC(NS(=O)(=O)c1ccc(C)cc1)c1ccco1` (stereo unspecified) was inactive: > 76.9 µM; that for `C=CCNc1nc2ccccc2nc1NS(=O)(=O)c1cccs1` was inactive: > 76.9 µM.
Turning to `Brc1cccc(-c2nnc3n2CCC3)c1`, the Potency was inactive: > 76.9 µM.
With `O=C(Nc1nnc(CC(=O)N2CCCC2)s1)c1cnccn1` the figure was inactive: > 76.9 µM; with `Cc1cc(C(=O)CSc2n[nH]c(N)n2)c(C)n1-c1cccc(F)c1`, inactive: > 15.4 µM; with `COc1ccc(N2CCN(C(=O)CN3C(=O)c4ccccc4S3(=O)=O)CC2)cc1`, inactive: > 76.9 µM.
On to `CCCn1c(=NC(=O)c2ccco2)c(C(=O)OCC)cc2c(=O)n3ccccc3nc21`, for which the Potency is inactive: > 76.9 µM.
The value for `CC(C)Sc1nc2c(c(=O)[nH]c(=O)n2C)n1Cc1ccc(Cl)cc1` was inactive: > 76.9 µM; that for `CC(=O)c1cccc(NC(=O)c2cc(-c3ccc(C)cc3)on2)c1` was inactive: > 76.9 µM; that for `COc1ccc(NC(=O)C(c2ccc(OC)cc2)N(C)C(=O)c2cnccn2)cc1` (stereo unspecified) was inactive: > 76.9 µM.
With `CCN(CC)C(=O)COc1ccc(-c2nnc(N3CCCCC3)c3ccccc23)cc1` the figure was inactive: > 76.9 µM; with `COc1ccc(NC(=O)C2CCN(c3cc(C)nc(-c4ccccc4)n3)CC2)cc1`, active: 13.2 µM.
The value for `COc1ccc(N(C(=O)c2cccc(OC)c2OC)C2C=CS(=O)(=O)C2)cc1` (stereo unspecified) was “inactive”; that for `Cc1ccc(/C(O)=C2\C(=O)C(=O)N(CC(C)O)C2c2ccc(N(C)C)cc2)cc1` (stereo unspecified) was inactive: > 76.9 µM; that for `Cc1cc(N2CCN(c3cccc(C(F)(F)F)c3)CC2)n2ncnc2n1` was inactive: > 76.9 µM.
For `CCSc1ccccc1C(=O)Nc1cccnc1`, the Potency was inactive: > 76.9 µM.
The value for `O=C(COc1cccc2cccnc12)Nc1nccs1` was inactive: > 76.9 µM; that for `O=C(CCC(=O)N1CCc2ccccc21)Nc1ccccc1` was inactive: > 76.9 µM.
Turning to `O=C(NCC(c1cccnc1)N1CCN(c2ccccc2)CC1)OCc1ccccc1` (stereo unspecified), the Potency is inactive: > 76.9 µM.
Consider `Cc1cc(C)c(S(=O)(=O)N2CCCCC2)c(C)c1-n1ncnn1`, for which the Potency was inactive: > 76.9 µM.
The value for `CC1(C)CC(=O)C2=C(C1)OC(N)=C(C#N)C21CCC2(CC1)OCCO2` was inactive: > 76.9 µM.
Regarding `CC1=C(C(=O)OC(C)C)C(c2ccncc2)n2ncnc2N1` (stereo unspecified), the Potency is inactive: > 76.9 µM.
As to `COc1ccc(N(CC(=O)NC2CCCCCC2)S(=O)(=O)c2c(C)nn(C)c2C)cc1`, the Potency was inactive: > 76.9 µM.
With `CCCCC(c1nnnn1Cc1ccco1)N1CCN(c2nc3ccccc3s2)CC1` (stereo unspecified) the figure was inactive: > 76.9 µM; with `CCOC(=O)N1CCN(C(=O)c2ccc3c(=O)n(-c4ccc(OC)cc4)c(=S)[nH]c3c2)CC1`, inactive: > 76.9 µM; with `Cc1nc(NCC2CCCO2)nc2c1C(=O)CC(C)(C)C2` (stereo unspecified), inactive: > 76.9 µM.
For `CCc1nnc(NC(=O)C2CCCN2S(=O)(=O)c2ccc(C)cc2)s1` (stereo unspecified), the Potency was inactive: > 76.9 µM.
On to `Cn1c(=O)[nH]c(=O)c2c1nc(Br)n2CCSc1nc2ccccc2o1`, for which the Potency is inactive: > 76.9 µM.
The value for `COc1ccc(C(=O)N2CCN(C3CCC(c4ccccc4)CC3)CC2)cc1OC` (stereo unspecified) was inactive: > 76.9 µM; that for `COc1ccc(CCn2c(NCc3ccco3)nc3c2c(=O)[nH]c(=O)n3C)cc1` was inactive: > 76.9 µM.
The value for `N=C1C(c2nc3ccccc3c(=O)[nH]2)=C(O)CN1CCO` was inactive: > 76.9 µM; that for `Cc1c(-c2ccccc2)nc(N)c(C#N)c1-c1ccco1` was inactive: > 76.9 µM.
With `COc1ccc(N2C(=O)CSC2c2ccc3c(c2)OCO3)c(OC)c1` (stereo unspecified) the figure was inactive: > 76.9 µM.
As for `C=CCn1cnc2c(c1=O)c1nc3ccccc3nc1n2/N=C/c1cc(OC)c(OC)c(OC)c1`, the Potency is inactive: > 76.9 µM.
The value for `Cc1cc2occ(CC(=O)O)c2cc1C` was inactive: > 76.9 µM; that for `CCN(CC)S(=O)(=O)c1ccc2oc(C(=O)NC(C)C)c(C)c2c1` was inactive: > 76.9 µM; that for `COc1ccc(NC(=O)CN(c2ccc(C)cc2)S(=O)(=O)c2c(C)nn(C)c2C)cc1OC` was inactive: > 76.9 µM.
With `O=C(O)CCN1C(=O)C2C3C=CC(C3)C2C1=O` (stereo unspecified) the figure was inactive: > 76.9 µM; with `CC(C)C(NC(=O)C1CCCCC1)C(=O)NC1CCN(Cc2ccccc2)CC1` (stereo unspecified), inactive: > 76.9 µM.

Values taken from PubChem BioAssay AID360 (National Center for Advancing Translational Sciences (NCATS), 2006).
